# This is one part of the list. One pool of 16,384 single-stranded DNAs met each Rep nickase domain in vitro at 3 µM enzyme and 37 °C for 1 h; the strands have 90 letters, of which the middle is given. Numbers give uncut DNA relative to the enzyme-free pool, as log2; the lower, the more was cut; hits are not called. Because reads are shares of a total, they shift together, so uncut sequences can rise above 0 when many others are cut.
# Columns and labels:
# Experiment in all cases: uncleaved DNA left, log2 of reads against the no-enzyme library (log2 ratio); higher = less cleavage (more negative = more Rep cleavage of the k-mer); sequences stand for … in CTCGTCCG…ACCGGAGA
# [1] = system: T1, Rep nickase domain of Muscovy duck circovirus
# T1 sequence (Rep 1-111, printed without the tag): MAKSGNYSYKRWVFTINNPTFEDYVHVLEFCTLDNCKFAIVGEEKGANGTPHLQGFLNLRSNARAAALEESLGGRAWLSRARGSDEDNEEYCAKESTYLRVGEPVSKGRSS
# Procedure: (§1)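 A pool of 90-nt single-stranded DNAs with seven random bases just before the constant AC of the nick site (name = the seven bases) was cut by 3 µM recombinant His6-SUMO-tagged Rep nickase domain (300 nM DNA, 50 mM HEPES pH 8.0, 50 mM NaCl, 1 mM MnCl2, 1 h, 37 °C, three replicates). Uncut DNA was amplified and sequenced.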
# [2] = system: T2, Rep nickase domain of banana bunchy top virus
# T2 sequence (Rep 1-94, printed without the tag): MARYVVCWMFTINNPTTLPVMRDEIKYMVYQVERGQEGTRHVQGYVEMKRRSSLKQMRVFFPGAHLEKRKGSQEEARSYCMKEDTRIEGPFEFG
# Procedure: as §1
# [3] = system: T3, Rep nickase domain of cabbage leaf curl virus
# T3 sequence (Rep 1-116, printed without the tag): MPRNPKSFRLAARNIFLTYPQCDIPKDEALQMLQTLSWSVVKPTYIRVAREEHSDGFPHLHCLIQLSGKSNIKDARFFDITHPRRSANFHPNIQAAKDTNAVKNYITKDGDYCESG
# Procedure: as §1
# [4] = system: T4, Rep nickase domain of chickpea chlorotic dwarf virus
# T4 sequence (Rep 1-124, printed without the tag): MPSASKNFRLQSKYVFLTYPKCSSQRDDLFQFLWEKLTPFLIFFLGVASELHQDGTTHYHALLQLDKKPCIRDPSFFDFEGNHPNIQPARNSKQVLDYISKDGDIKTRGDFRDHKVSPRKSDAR
# Procedure: as §1
# [5] = system: T5, Rep nickase domain of faba bean necrotic yellows virus
# T5 sequence (Rep 1-98, printed without the tag): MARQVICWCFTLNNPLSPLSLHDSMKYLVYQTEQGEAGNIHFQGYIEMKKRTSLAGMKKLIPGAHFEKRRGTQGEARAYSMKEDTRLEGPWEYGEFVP
# Procedure: as §1
# [6] = system: T6, Rep nickase domain of maize striate mosaic virus
# T6 sequence (Rep 1-117, printed without the tag): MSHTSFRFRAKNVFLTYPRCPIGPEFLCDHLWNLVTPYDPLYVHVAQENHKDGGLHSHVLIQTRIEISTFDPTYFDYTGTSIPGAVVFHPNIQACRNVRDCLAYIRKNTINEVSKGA
# Procedure: as §1
# [7] = system: T7, Rep nickase domain of porcine circovirus 2
# T7 sequence (Rep 2-116, printed without the tag): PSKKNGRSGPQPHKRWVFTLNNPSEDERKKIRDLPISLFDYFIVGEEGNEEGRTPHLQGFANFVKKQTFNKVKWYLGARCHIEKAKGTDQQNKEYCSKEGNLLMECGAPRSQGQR
# Procedure: as §1
# [8] = system: T8, Rep nickase domain of tomato yellow leaf curl virus
# T8 sequence (Rep 1-136, printed without the tag): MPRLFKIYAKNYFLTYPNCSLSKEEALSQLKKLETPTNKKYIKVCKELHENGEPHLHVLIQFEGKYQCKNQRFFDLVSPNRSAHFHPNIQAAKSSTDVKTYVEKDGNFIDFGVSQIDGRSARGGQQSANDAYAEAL
# Procedure: as §1
# [9] = system: T9, Rep nickase domain of wheat dwarf virus
# T9 sequence (Rep 1-137, printed without the tag): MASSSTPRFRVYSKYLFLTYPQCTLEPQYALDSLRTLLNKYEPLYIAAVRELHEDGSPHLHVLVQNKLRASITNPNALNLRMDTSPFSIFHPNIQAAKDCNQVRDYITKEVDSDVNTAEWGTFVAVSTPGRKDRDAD
# Procedure: as §1
Sequence,uncleaved DNA left (log2) [1],uncleaved DNA left (log2) [2],uncleaved DNA left (log2) [3],uncleaved DNA left (log2) [4],uncleaved DNA left (log2) [5],uncleaved DNA left (log2) [6],uncleaved DNA left (log2) [7],uncleaved DNA left (log2) [8],uncleaved DNA left (log2) [9]
ACGGAGA,0.236,0.129,-0.0106,0.362,0.213,-0.491,0.149,0.0889,-0.0128
GTTATAC,-0.0984,-0.0564,0.319,0.798,-0.062,1.66,0.00189,0.0422,0.0462
TGCTTGA,0.0603,-0.0489,-0.0296,-0.055,0.0892,-0.488,-0.0371,0.0174,-0.0281
GACGTAT,0.167,0.0154,0.305,0.432,0.0904,1.16,-0.0248,-0.0278,0.135
GAGTATT,-2.36,-2.67,-1.63,-1.82,-2.81,1.11,-3.08,0.194,-0.481
TTGGAGC,-0.0502,-0.106,-0.164,-0.334,0.0196,-0.821,0.0568,-0.0513,-0.0417
GCGTTGG,0.0286,0.00249,-0.439,-0.234,-0.0599,-0.796,0.101,-0.0461,-0.208
AGTGTCT,0.00528,-0.0255,0.104,-0.24,0.0522,0.658,-3.03,-0.0149,0.0517
TCTCGAA,0.0981,-0.0442,0.123,-0.21,0.0385,-0.583,0.016,-0.162,-0.0406
CTCAGCT,-0.0199,-0.115,-0.295,-1.14,-0.0218,-0.803,0.0345,-0.071,-0.162
TGCCCAG,-0.0513,-0.00318,-0.494,-0.431,0.00785,-0.967,0.0688,0.0886,0.0241
TGGAACT,0.125,-0.00622,0.691,0.48,-0.0556,1.89,0.152,0.125,0.181
GGGGTAG,-0.0209,-0.00512,0.77,1.76,-0.0883,2.05,0.207,-0.0492,0.108
CTTATCT,-0.161,-0.00647,0.126,-1.57,-0.0669,-0.298,-0.364,0.0781,0.0753
CGCCAAC,-0.0304,0.0661,-0.0202,-0.693,0.0572,-0.311,0.0485,-0.00774,0.0646
TAGGCGC,-0.103,-0.153,-0.867,-0.937,-0.0955,-0.904,-0.118,-0.182,-0.335
CTATGCA,-0.0564,0.0384,-0.66,-0.904,-0.012,-1.18,-0.0162,0.0612,0.0102
CGTAAGG,0.117,0.0647,0.19,0.875,0.0791,0.836,0.0836,0.0418,0.0416
TAATACC,-3.1,-0.322,-3.9,-3.45,-1.78,-2.99,-3.63,-0.121,-3.52
TATGTCA,-0.00887,0.0584,0.107,-1.55,-0.00604,-0.533,-0.173,0.15,0.0791

Sequence,uncleaved DNA left (log2) [1],uncleaved DNA left (log2) [2],uncleaved DNA left (log2) [3],uncleaved DNA left (log2) [4],uncleaved DNA left (log2) [5],uncleaved DNA left (log2) [6],uncleaved DNA left (log2) [7],uncleaved DNA left (log2) [8],uncleaved DNA left (log2) [9]
AATCTTG,0.0137,-0.0701,-0.422,-1.83,-0.0543,-0.941,-0.0663,-0.035,-0.0928
TAATTTA,-1.58,-0.163,-3.08,-3.32,-0.13,-2.46,-2.36,-0.234,-2.95
CGTGGGG,0.183,0.157,0.0643,0.463,0.0866,0.00464,0.234,0.162,0.0417
TCAACTC,-0.102,-0.122,-0.0662,-1.26,-0.122,-0.377,-0.154,-0.0878,-0.0819
CGAAAAC,0.0719,-0.0042,-0.0166,-0.241,0.0566,-0.549,0.105,-0.0149,0.105
GCCTCGG,-0.109,-0.0614,0.417,1.24,0.0247,1.51,0.00714,-0.142,-0.0575
GGAGAGC,0.0456,0.119,0.764,1.62,0.0362,1.87,0.122,0.0426,0.0964
CTTTTAA,0.0381,-0.0374,-0.152,-0.473,-0.049,-0.7,-0.183,0.0573,0.183
GTCAATT,0.0567,0.122,0.391,0.652,0.0273,1.66,-0.0274,0.119,0.181
GGCCCTA,-0.0614,0.123,0.578,1.21,0.145,1.83,-0.0164,0.147,0.243
GGCTAGA,-0.0283,0.0121,0.467,1.12,-0.00403,1.5,0.194,0.125,0.184
TAACTTC,-0.163,0.0308,-2.81,-3.02,-0.0244,-1.27,-0.201,0.0426,-0.986
CGGTGCG,-0.132,-0.0745,-0.698,0.84,-0.24,0.18,-0.0974,-0.27,-0.183
TTGCCCT,-0.792,-0.465,-0.323,-1.67,-0.00114,-0.885,-2.39,0.0585,-0.0316
CTGAGAT,0.181,-0.198,0.291,1.29,0.24,1.43,0.401,-0.0598,0.0371
ATTGTGA,0.00725,-0.0852,-0.752,-0.363,0.0154,-0.974,0.0891,-0.0341,-0.151
ATCGTAG,0.133,0.0608,-0.666,-0.603,0.0603,-1.28,0.366,0.102,0.0308
GCATACT,-2.64,-0.0642,-0.48,-2.17,-0.121,-0.291,-2.81,0.0507,-0.0933
CTCGCCT,-0.0329,-0.02,-0.127,-1.54,-0.0023,-0.528,-0.464,-0.0715,-0.215
CAACTAC,-0.0554,-0.185,-0.442,-2.5,-0.0455,-1,-0.05,-0.189,-0.0681

Sequence,uncleaved DNA left (log2) [1],uncleaved DNA left (log2) [2],uncleaved DNA left (log2) [3],uncleaved DNA left (log2) [4],uncleaved DNA left (log2) [5],uncleaved DNA left (log2) [6],uncleaved DNA left (log2) [7],uncleaved DNA left (log2) [8],uncleaved DNA left (log2) [9]
CGAGTCC,-0.0467,0.0263,0.212,0.095,-0.0786,0.028,-0.0714,0.084,0.033
GTAATCG,0.0876,0.11,-0.597,-0.521,0.172,-0.845,0.235,0.099,-0.00327
TTGGCGC,0.206,0.00414,-0.66,0.0712,0.093,-0.793,0.154,0.043,-0.11
CCGATGT,0.0246,0.0265,0.0571,-0.0566,-0.0475,-0.339,-0.0645,0.0967,-0.133
GCCTTTG,0.0724,-0.0497,-0.164,-0.167,-0.0893,-0.671,0.0269,-0.0491,-0.0554
GCCTGTA,0.0333,0.0423,0.219,0.131,0.12,0.267,0.101,-0.0143,-0.0126
TACCGCG,-0.0315,-0.0569,-0.749,0.278,0.0401,-0.491,-0.312,-0.0181,-0.229
ATTTGGG,0.044,0.0162,-0.588,-0.518,0.185,-1.06,0.275,0.184,-0.00838
GCTGACT,0.153,0.0869,0.0865,0.414,-0.085,0.831,0.22,-0.0412,0.0731
CGCCCTA,-0.0644,0.0377,-0.0826,-0.508,0.0456,-0.249,-0.236,-0.0178,-0.00447
TTCCTCC,0.0532,0.0809,0.235,0.208,-0.0581,0.795,-0.0243,0.102,0.179
TAGCATT,0.0815,-0.0083,-0.729,-2.36,-0.0724,0.25,-3.58,0.119,0.0305
GCTTCCC,-0.101,-0.0917,0.0649,0.286,-0.136,0.367,-1.36,-0.047,-0.0148
CCTCCCT,-0.238,-0.212,-0.282,-2.1,-0.0641,-0.405,-0.726,-0.198,-0.247
CGTTTCT,-1.15,-0.0497,0.124,-1.17,-0.0524,-0.138,-1.52,0.0931,0.0957
AGGACTT,0.0286,0.145,0.554,1.62,-0.00702,2.15,0.0193,0.0173,0.231
CTCTGCG,0.0418,0.121,-0.578,0.413,0.022,-0.24,0.138,-0.166,0.0466
AGTCGCC,0.0717,0.0299,0.14,0.242,0.0537,-0.256,0.0691,0.0254,0.0213
AGACTTT,0.0727,-0.0693,0.352,0.156,-0.0324,1.53,-0.172,0.01,0.0326
AAGGACC,0.0321,0.0336,0.152,0.794,-0.083,0.424,0.0748,-0.0394,0.0778
